According to PubChem BioAssay AID624170 (National Center for Advancing Translational Sciences (NCATS), 2012):
Hit rate of the full screen: of about 410,000 compounds, about 850 (0.21%) were called active. This list was built around the results that the source calls inconclusive (neither active nor inactive); the mix of calls is not that of the screen. The call rests on the fitted dose curve; in most records, active means well fitted inhibition curve with a large enough effect; inconclusive means small, poorly fitted or top-dose-only effect, or another doubt; inactive means no such curve, though single readings can be large or run the other way. Potencies beside an inconclusive call are fits to weak or partial responses and may not hold up.

The compounds below were run against Glutaminase kidney isoform, mitochondrial (Homo sapiens) (UniProt O94925) (assay: qHTS for Inhibitors of Glutaminase (GLS)). Conditions: GLS enzymatic activity, qHTS titration; series mostly up to 45.5 µM.
How it was run: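 Coupled fluorescence readout: glutamate oxidase/HRP/Amplex Red detect glutamate formed by hKGA from L-glutamine (1 mM solution added). Buffer 45 mM KH2PO4 pH 8.2, 0.02% Tween-20; reads at t0 and 30 min RT.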
Potency means the concentration at half of the fitted maximal effect; tags describe the fitted curve by direction and shape.

UniProt O94925, sequence (O94925 whole entry, looked up, canonical isoform): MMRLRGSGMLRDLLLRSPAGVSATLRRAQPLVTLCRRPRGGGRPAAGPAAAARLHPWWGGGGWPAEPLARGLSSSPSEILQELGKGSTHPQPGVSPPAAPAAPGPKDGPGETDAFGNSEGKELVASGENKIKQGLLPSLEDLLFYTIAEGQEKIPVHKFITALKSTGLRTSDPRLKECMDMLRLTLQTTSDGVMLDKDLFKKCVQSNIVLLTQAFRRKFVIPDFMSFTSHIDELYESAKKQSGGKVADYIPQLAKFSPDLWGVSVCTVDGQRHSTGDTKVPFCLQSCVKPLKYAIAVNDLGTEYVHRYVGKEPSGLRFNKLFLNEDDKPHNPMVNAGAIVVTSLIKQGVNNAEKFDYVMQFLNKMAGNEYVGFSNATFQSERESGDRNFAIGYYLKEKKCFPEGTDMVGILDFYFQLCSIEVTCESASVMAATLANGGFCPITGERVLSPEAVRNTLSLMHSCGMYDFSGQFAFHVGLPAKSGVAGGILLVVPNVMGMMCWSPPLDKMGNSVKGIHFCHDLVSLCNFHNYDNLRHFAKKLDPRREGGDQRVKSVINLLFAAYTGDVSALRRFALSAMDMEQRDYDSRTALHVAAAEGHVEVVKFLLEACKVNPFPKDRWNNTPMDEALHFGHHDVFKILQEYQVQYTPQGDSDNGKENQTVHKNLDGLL

Potency, inconclusive:
Nc1nn2c(-c3ccccc3)cc(=O)[nH]c2c1N=Nc1ccc(O)cc1 2.51 µM [inhibitor, full curve]
COCCNC(=O)CSc1nnc2c(Cl)cc(Cl)cn12 5.62 µM [inhibitor, single point]
Cc1ccc(COc2ccccc2C(=S)N2CCCC2)cc1 35.5 µM [inhibitor, single point]
CCc1cc(-c2n[nH]c(=S)n2C(C)c2ccccc2)cs1 (stereo not given) 10 µM [inhibitor, partial curve]
O=C(NC(=S)Nc1ccccc1O)c1ccccc1Cl 22.4 µM [inhibitor, partial curve, poor fit]
COc1ccc(-c2nnn(CC(=O)N(CC(=O)NC3CCCC3)c3ccccc3)n2)cc1OC 12.6 µM [inhibitor, partial curve]
CC(=O)NCc1ccc(S(=O)(=O)N2CCCN(C)CC2)cc1 35.5 µM [inhibitor, single point]
Oc1c(Br)cc(/C=N/NC(=S)NCC2CCCO2)cc1Br (stereo not given) 35.5 µM [inhibitor, single point]
Cc1nc(S/C(=C/c2ccc(OCc3ccc(C(=O)O)cc3)cc2)C(=O)O)n[nH]1 22.4 µM [inhibitor, single point]
Cc1ccc(NC(=O)N2CCC(NC(=O)c3cccc(C)c3)CC2)cc1 17.8 µM [inhibitor, partial curve, poor fit]
COc1cc2c(C(=O)O)c(C)n(-c3ccccc3)c2c2ccccc12 31.6 µM [inhibitor, partial curve, poor fit]
CC(C)(C)NC(=O)NC(=O)CN1CCN(Cc2ccccc2)CC1 35.5 µM [inhibitor, partial curve, poor fit]
CC1=C(C(=O)Nc2ccccn2)C(c2ccc(Cl)cc2Cl)NC(=S)N1 (stereo not given) 2.51 µM [inhibitor, partial curve, poor fit]
COc1ccc(NC(=O)CC2C(=O)N(C)C(=S)N2Cc2cccs2)cc1 (stereo not given) 35.5 µM [inhibitor, single point]
Cc1nn2c(-c3ccc(Cl)cc3)nnc2s1 3.55 µM [inhibitor, full curve, poor fit]
CC(=O)c1ccc(N2CCN(C(=O)C3CCCN(S(=O)(=O)c4c(C)[nH]c(=O)[nH]c4=O)C3)CC2)cc1 (stereo not given) 22.4 µM [inhibitor, single point]
CCOc1cc(/C=N/NC(=O)NN(C)c2ncc(C(F)(F)F)cc2Cl)ccc1O 25.1 µM [inhibitor, single point]
CCOc1cc(/C=N/Nc2ccccc2Cl)ccc1OCC(=O)O 35.5 µM [inhibitor, single point]
COc1ccc(NCc2cc(=O)[nH]c3ccccc23)cc1 11.2 µM [inhibitor, partial curve]
COc1ccc(O)c(C(=O)c2cnc3c(c2)c(-c2ccc(F)cc2)c(C#N)c(=O)n3C)c1 20 µM [inhibitor, single point]
C=CCNC(=S)NNC(=O)c1ccc(=O)n(Cc2ccccc2)c1 22.4 µM [inhibitor, single point]
Cn1c(-c2cc(Br)ccc2O)n[nH]c1=S 3.16 µM [inhibitor, full curve]
Cc1cc(Br)ccc1SCC(=O)OCC(=O)NCc1ccco1 15.8 µM [inhibitor, single point]
CC(C)(C)n1nnnc1C(c1ccc(F)cc1)N(Cc1ccc(F)cc1)Cc1ccco1 (stereo not given) 35.5 µM [inhibitor, single point]
Cc1cc(C)c2c(=O)n(CC(=O)Nc3cccc(F)c3)sc2n1 25.1 µM [inhibitor, partial curve, poor fit]
Cc1nc(SCC(=O)Nc2cc(C)on2)c2c(C)c(C)sc2n1 35.5 µM [inhibitor, single point]
Cc1cc(S(=O)(=O)N2CCCC2)ccc1OCC(=O)NCc1ccco1 5.62 µM [inhibitor, single point]
COc1cc(/C=N\NC(=O)c2ccc(C)nc2)ccc1OC(=O)c1cccc(F)c1 3.16 µM [inhibitor, single point]
CCOc1ccc(C(=O)C[n+]2ccc(C(=O)NCCO)cc2)cc1 20 µM [inhibitor, single point]

Potency, active:
O=c1nc(/C=C/c2ccc(O)c(O)c2)oc2ccccc12 5.62 µM
CC(=O)C1=C(c2ccccc2)NC(=S)NC1c1ccc(O)c(O)c1 (stereo not given) 8.91 µM

Potency, inactive:
CC1=NOC(=O)/C1=C/c1ccc(N(C)C)cc1
Clc1ccc(-c2nnc(-c3ccc4ccccc4c3)o2)cc1
Cn1c(SCC(=O)NC2CCCC2)nnc1-c1cccs1
O=c1c(Cl)c(N/N=C/c2ccc(Cl)cc2)cnn1-c1ccccc1
CCCCN1C(=O)C(=O)N(c2ccccc2)C1=S
COc1ccc(N2C(=O)[C@H]3[C@@H](C2=O)C2c4ccccc4C=NN2[C@H]3C(=O)C(C)(C)C)cc1 (stereo not given in full)
COc1cccc(NC(=O)CN(C)C(=O)C(Sc2ccccc2)c2ccccc2)c1 (stereo not given)
CN(CC(=O)Nc1ccccc1Cl)C(=O)CN1C(=O)C2CC=CCC2C1=O (stereo not given)
Nc1ccn([C@@H]2O[C@H](CNCC3=CCOc4ccc(O)cc43)[C@@H](O)[C@H]2O)c(=O)n1
CCCCC(Br)C(=O)Nc1ccc(S(=O)(=O)Nc2cc(C)nc(C)n2)cc1 (stereo not given)
CCc1ccc(C(=O)Nc2cccc(-c3nc4cc(C(C)C)ccc4o3)c2)cc1
CCC1CCc2sc(C(=O)NC3CCN(Cc4ccccc4)CC3)cc2C1 (stereo not given)
Cc1ccc(OCc2ccc(C(=O)O)o2)cc1C
O=C(Nc1cc(S(=O)(=O)N2CCOCC2)ccc1N1CCCC1)c1ccccc1C(F)(F)F
